Measurements published in publication PMC4336329 (PLoS ONE, 2015).
Out of some 310,000 compounds screened, about 14,000 (4.5%) showed an effect of 50% or more. Effects have a minus sign here. The list shows a part of the results.

Biological target: human ether-à-go-go-related gene (hERG) potassium channel (human, UniProt Q12809)
Test: primary screen, population patch clamp on CHO cells stably expressing hERG
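Note: peak tail current of the secondary pulse compared with the same well before compound.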

human ether-à-go-go-related gene (hERG) potassium channel, sequence (Q12809 whole entry, looked up): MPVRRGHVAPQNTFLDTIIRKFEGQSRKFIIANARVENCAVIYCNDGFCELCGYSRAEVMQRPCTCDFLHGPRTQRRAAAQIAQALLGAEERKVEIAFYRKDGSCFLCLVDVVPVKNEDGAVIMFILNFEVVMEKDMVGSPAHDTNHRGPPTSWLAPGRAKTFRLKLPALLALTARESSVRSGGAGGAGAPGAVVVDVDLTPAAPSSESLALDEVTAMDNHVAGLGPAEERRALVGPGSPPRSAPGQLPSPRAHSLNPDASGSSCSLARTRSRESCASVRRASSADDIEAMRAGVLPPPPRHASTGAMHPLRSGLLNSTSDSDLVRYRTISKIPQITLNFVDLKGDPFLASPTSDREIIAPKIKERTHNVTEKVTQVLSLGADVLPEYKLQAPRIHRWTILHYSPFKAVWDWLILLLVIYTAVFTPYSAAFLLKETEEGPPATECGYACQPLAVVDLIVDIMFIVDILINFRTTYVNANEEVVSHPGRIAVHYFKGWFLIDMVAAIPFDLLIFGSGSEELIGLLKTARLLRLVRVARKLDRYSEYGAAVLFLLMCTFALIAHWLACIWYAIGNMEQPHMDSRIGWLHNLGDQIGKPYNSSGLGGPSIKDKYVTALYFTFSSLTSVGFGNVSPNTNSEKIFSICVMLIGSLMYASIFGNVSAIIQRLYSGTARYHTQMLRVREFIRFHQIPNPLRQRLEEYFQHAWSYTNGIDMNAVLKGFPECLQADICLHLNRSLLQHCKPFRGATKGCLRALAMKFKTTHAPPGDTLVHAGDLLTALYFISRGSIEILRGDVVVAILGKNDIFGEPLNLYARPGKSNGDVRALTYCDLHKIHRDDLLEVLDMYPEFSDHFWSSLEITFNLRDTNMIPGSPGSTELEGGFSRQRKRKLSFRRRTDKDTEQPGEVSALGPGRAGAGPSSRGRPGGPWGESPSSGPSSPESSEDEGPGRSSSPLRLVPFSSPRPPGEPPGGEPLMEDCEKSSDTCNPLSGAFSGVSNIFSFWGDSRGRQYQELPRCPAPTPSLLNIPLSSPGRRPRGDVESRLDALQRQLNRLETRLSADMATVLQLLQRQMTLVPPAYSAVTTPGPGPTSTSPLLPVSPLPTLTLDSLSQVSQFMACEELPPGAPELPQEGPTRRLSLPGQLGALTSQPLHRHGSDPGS

Compound | hERG current change (%, negative = inhibition) at 10uM
Cc1ccc(-n2ncc(C(=O)N3CCN(C(=O)c4ccco4)CC3)c2-n2cccc2)cc1 | -27.4%
CC(C)Sc1nc2ccc(N3C(=O)C4CCCCC4C3=O)cc2s1 (centres unmarked) | -3.65%
COCCNC(=O)CCCn1c(=O)c2ccccc2n(Cc2cccc([N+](=O)[O-])c2)c1=O | -26.3%
CCCNC(=S)Nc1ccc2nc(-c3ccccn3)c(-c3ccccn3)nc2c1 | -7.39%
COCCCNc1nc2ccccc2nc1NS(=O)(=O)c1ccc(OC)cc1 | 17.2%
Cc1ccc(-c2csc(NC(=O)c3cccs3)n2)cc1 | 17.5%
C=C(C)c1cccc(C(C)(C)NC(=O)Nc2ccc(C)cn2)c1 | -25.7%
CCOc1ccccc1OCC(=O)OCC(=O)NNC(=O)c1ccc([N+](=O)[O-])cc1 | -11.4%
O=C(OCCN=C1NS(=O)(=O)c2ccccc21)c1ccco1 | 9.33%
CC(C)OC(=S)N/C(=N\S(=O)(=O)c1ccccc1)c1ccccc1 | 5.43%
Cc1cc(C)nc(NS(=O)(=O)c2ccc(NC(=O)CCC3COc4ccccc4O3)cc2)n1 (centres unmarked) | -5.19%
CC(=NCc1ccco1)C1=C(O)c2ccccc2C1=O | -14%
COc1ccc(/C=N/NC(=O)c2ccn[nH]2)cc1COc1ccc(Cl)cc1Cl | 14.6%
CCOC(=O)c1c(C)[nH]c(C(=O)OCC(=O)Nc2cc(C)ccc2OC)c1C | -0.258%
CC(NC(=O)c1ccc(OC2CCN(Cc3ccccn3)CC2)cc1)c1ccccc1 (centres unmarked) | -20.3%
CC(C)Cc1nnc(NC(=O)CCC(=O)N2CCN(c3ccc(Cl)cc3)CC2)s1 | -3.51%
O=C(CS(=O)(=O)c1ccc(Cl)cc1)NCCS(=O)(=O)c1ccc(Cl)cc1 | -40.5%
O=C(CS(=O)(=O)c1ccccc1)Nc1ccc(Cl)cn1 | -1.22%
O=C(CCCCCn1c(=S)[nH]c2ccsc2c1=O)NC1CCCCC1 | 4.4%

Compound | hERG current change (%, negative = inhibition) at 10uM
COc1ccc(CNC(=O)/C=C/c2ccc(S(=O)(=O)N3CCOCC3)cc2)cc1 | -8.55%
Cc1cccc(NC(=O)/C(C#N)=C/c2cn(CC(=O)NCc3ccco3)c3ccccc23)c1C | 11%
CCOC(=O)C1CCN(c2cc(=O)n(-c3ccccc3Cl)c(=O)[nH]2)CC1 | 4.41%
CSc1ccc(CSCC(=O)N2CCN(S(=O)(=O)c3ccc(C)cc3C)CC2)cc1 | -20.3%
CN(C)C(=O)c1ccc(-c2nnc(NCc3ccccc3)c3ccccc23)cc1 | -24.9%
N#Cc1cn(CC(=O)NCC2CCCO2)c2ccccc12 (centres unmarked) | -0.916%
CNC(=O)COC(=O)c1ccccc1NC(=O)c1ccco1 | -52.1%
N#Cc1cn(CC(=O)O)c2ccccc12 | 3.2%
c1ccc(CCNC2=NCCS2)cc1 | 12.2%
CC(C)CCN1C(N(C)C)=NC[C@@H]1C | 14.6%
CCOC(=O)C1=C(C)NC(=O)NC1C1CC=CCC1 (centres unmarked) | 4.78%
CCOc1ccc(C2C(C#N)=C(N)Oc3cc(C)n(CCN(C)C)c(=O)c32)cc1OCC (centres unmarked) | -40%
O=C(NCCN1CCOCC1)c1c(O)nc2sccn2c1=O | 14.2%
COc1ccc(OC)c(NC(=O)c2ccc(S(=O)(=O)N3CCN(C)CC3)cc2)c1 | -13.1%
CCOC(=O)C(C(=O)OCC)N(C#N)c1nc(SC)nc(N(C)C)n1 | -26.4%
CC(C)CN(C(=O)COC(=O)CCc1nc2ccccc2s1)c1c(N)n(Cc2ccccc2)c(=O)[nH]c1=O | -0.0781%
CCCCNC(=O)NC1(C(F)(F)F)Oc2ccccc2O1 | -0.0511%
Cc1ccc(-c2csc(NC(=O)C3=NN(C4CCS(=O)(=O)C4)C(=O)CC3)n2)cc1 (centres unmarked) | -3.9%
COc1ccc(Br)c(C(=O)OCC(=O)NC2CCCCCC2)c1 | -16.6%

Compound | hERG current change (%, negative = inhibition) at 10uM
COc1ccc(Nc2nc(Cl)nc(Nc3ccc(OC)cc3OC)n2)c(OC)c1 | 8.79%
CCOC(=O)N1CCN(C(=O)CCSc2ccc(Cl)cc2)CC1 | -42.3%
O=C(C1CC1)N1CCc2cc(Br)cc(S(=O)(=O)NC3CCCCC3)c21 | 9.64%
CC(=O)C1C(=O)CC(C)(O)C(C(C)=O)C1c1ccccc1 (centres unmarked) | 17.2%
COc1ccc(C2C3=C(OC(C)=O)c4ccccc4C3=Nc3c2c(=O)n(C)c(=O)n3C)cc1 (centres unmarked) | 10.8%
Cc1c(C(=O)OCC(=O)N(CCC#N)c2ccccc2)oc2c1ccc1ccccc12 | 0.0477%
CC(C)CCN1CCN(Cc2nc3c(s2)CCCC3)CC1CCO (centres unmarked) | -28.2%
N#C/C(=C\c1cccnc1)c1nc2c(s1)CCCC2 | -3.11%
COc1cc(NC(=O)c2cc(C)no2)cc(OC)c1OC | 22.3%
CCN1C(=O)c2ccccc2Sc2ccc(C(=O)NCCN3CCOCC3)cc21 | -5.49%
CCOC(=O)c1nnn(-c2nonc2-n2cccc2)c1CCl | 19.6%
CCc1nnc(NC(=O)c2ccc(COc3cccc(C)c3)o2)s1 | 27.1%
COCC(=O)N1CCN(c2nc3ccccc3o2)CC1 | 19.8%
Cc1ccc(C)c(NC(=O)c2sc(Cl)nc2C)c1 | -3.2%
COc1cccc(CN(C)CC(=O)Nc2ccccc2C(=O)Nc2ccccc2)c1OC | 6.18%
Cc1ccc(S(=O)(=O)NN2C(=O)c3ccccc3NC2c2ccccc2F)cc1 (centres unmarked) | 11.2%
O=C1CC(c2ccc(F)cc2)Sc2ccccc2N1 (centres unmarked) | -30.7%
COC(=O)Cn1c(O)c(N=NC(=O)c2ccc3c(c2)OCO3)c2ccccc21 | 18.4%
